{"source": "paper PMC10763179", "about": "(Open access Macedonian journal of medical sciences, 2023)", "system": "HL-60(TB)", "test": "NCI60 screen", "format": "cell-based, human", "conditions": "Leukemia, single dose 8.3 μM"}
{"smiles": "C=C1C(=O)O[C@@H]2[C@H]3C(C)=CC[C@@]34O[C@@]4(C)CC[C@@H]12", "note": "[Arglabin 6, arglabin]", "values": [{"measurement": "Growth of tumor cells, %", "result": 2.63, "unit": "%"}]}
